Measurements reported in PubChem BioAssay AID1460 (National Center for Advancing Translational Sciences (NCATS), 2008).
Among all 270,000 compounds or so, about 5,800 (2.1%) were called active. The shares of active, inactive and inconclusive entries below differ from those in the screen. Calls follow the shape of the dose curve; as a rule, active = well fitted inhibition curve with a large enough effect; inconclusive = small, poorly fitted or top-dose-only effect; inactive = flat fitted curve, though single readings scatter. Where the call is inconclusive, the potency comes from a doubtful curve fit.

Biological target: Microtubule-associated protein tau (Homo sapiens) (UniProt P10636)
UniProt P10636, sequence (P10636 whole entry, looked up): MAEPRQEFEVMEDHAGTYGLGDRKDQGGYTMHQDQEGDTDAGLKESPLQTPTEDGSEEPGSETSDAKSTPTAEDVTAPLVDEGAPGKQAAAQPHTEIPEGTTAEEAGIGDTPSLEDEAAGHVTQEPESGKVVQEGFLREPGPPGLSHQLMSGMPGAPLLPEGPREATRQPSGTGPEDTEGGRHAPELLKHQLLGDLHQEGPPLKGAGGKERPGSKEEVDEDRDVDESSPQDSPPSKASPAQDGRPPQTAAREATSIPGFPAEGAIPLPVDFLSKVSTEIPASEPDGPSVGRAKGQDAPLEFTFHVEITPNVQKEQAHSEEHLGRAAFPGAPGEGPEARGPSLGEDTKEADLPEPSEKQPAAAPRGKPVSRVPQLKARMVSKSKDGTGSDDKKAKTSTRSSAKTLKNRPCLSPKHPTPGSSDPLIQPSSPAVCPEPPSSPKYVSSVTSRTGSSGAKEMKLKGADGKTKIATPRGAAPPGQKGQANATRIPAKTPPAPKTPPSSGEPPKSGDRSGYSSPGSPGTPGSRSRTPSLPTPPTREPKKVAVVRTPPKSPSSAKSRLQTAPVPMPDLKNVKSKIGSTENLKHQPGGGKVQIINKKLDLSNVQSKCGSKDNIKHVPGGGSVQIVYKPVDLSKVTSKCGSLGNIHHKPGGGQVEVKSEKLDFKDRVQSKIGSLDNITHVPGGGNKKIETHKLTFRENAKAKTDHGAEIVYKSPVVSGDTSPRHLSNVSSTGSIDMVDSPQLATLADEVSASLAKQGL
Assay: qHTS for Inhibitors of Tau Fibril Formation, Thioflavin T Binding; also: nearly all actives have a fitted effect of over 55% in size
Conditions: recombinant tau K18 P301L (four-repeat tau fragment), heparin-induced fibrillization, ThT fluorescence; series mostly up to 57.4 µM; activity, negative = inhibition: at the top concentration
Excerpt: NIH Molecular Libraries Probe Production Network [MLPCN]
NIH Chemical Genomics Center [NCGC]
Assay Provider: Carlo Ballatore, University of Pennsylvania
The microtubule-associated protein tau is an abundant protein in the axons of neurons that stabilizes microtubules. With its ability to modulate microtubule dynamics, tau contributes directly or indirectly, to key structural and regulatory cellular functions. Particularly important is the influence tau exerts on axonal transport, which allows signaling molecules, trophic factors and other essential cellular constituents to travel along the axons. Under pathological conditions, tau becomes sequestered into insoluble aggregates called neurofibrillary tangles. This phenomenon is believed to have pathological consequences by promoting axonal transport deficits that ultimately lead to synaptic dysfunction and neuronal loss. To identify inhibitors of tau aggregation, a heparin-induced tau fibril formation assay was used that employed a recombinantly expressed fragment of tau, K18 (Q242-E372), bearing a P301L mutation (Gustke et al. 1994; Hong et al. 1998). This assay monitors tau fibrillization by Thioflavin T (ThT) fluorescence.
Gustke, N., B. Trinczek, et al. (1994). "Domains of tau protein and interactions with microtubules." Biochemistry 33(32): 9511-22.
Hong, M., V. Zhukareva, et al. (1998).
Li, W. and V. M. Lee (2006).
von Bergen, M., S. Barghorn, et al. (2001). "Mutations of tau protein in frontotemporal dementia promote aggregation of paired helical filaments by enhancing local beta-structure." J Biol Chem 276(51): 48165-74.
NCGC Assay Protocol Summary:
For screening, 2 uL/well human K18 P301L (15 uM unlabeled and 0.24 uM Alexa 594-labeled tau, final concentrations) in reagent buffer (100 mM sodium acetate pH 7) was dispensed into black solid 1536-well plates (Grenier) using a solenoid-based dispenser. Following transfer of 23 nL compound or DMSO vehicle by a pin tool, 2 uL/well heparin (20 uM final concentration) in reagent buffer was added and the plate centrifuged 15 s at 1000 RPM. Plates were incubated 6 hr at 37 C and then 1 uL/well ThT (30 uM final concentration) was added. After a 1 hr ambient incubation, the plates were read by an Envision (Perkin Elmer) to monitor ThT fluorescence (450/8 nm excitation and 510/23 nm emission).
Keywords: NIH Roadmap, MLPCN, MLI, MLSMR, NCGC, qHTS, tau, tauopathies, Alzheimer's disease, fibril, neurodegeneration, aggregation
% is scaled to controls: 0 for no effect and ±100 for the full control effect; potency is read from the fitted curve at half-maximal effect; tags tell the direction and shape of the fitted curve.

Question: Which “activity, negative = inhibition” value does the source give for `CCOC(=O)CSc1nc2ccccc2n1CC(=O)NC(C)(C)C` here?
Answer: Its value is inactive: -13.6%.

Question: Which “activity, negative = inhibition” value does the source give for `O=C(Cc1ccc(F)cc1)NCCc1csc(-c2ccc(C(F)(F)F)cc2)n1` here?
Answer: Its value is inactive: -3.16%.

Question: With `S=C(NCC1CCCO1)Nc1ccc(Nc2ccccc2)cc1` (stereo not given) as the molecule, how does the Potency read?
Answer: The Potency was inconclusive: 25.1 µM [inhibitor, partial curve].

Question: `O=C(O)CCc1ccc(-c2ccc(Cl)cc2)n1-c1cccc(C(F)(F)F)c1` was tested. Which Potency did it give?
Answer: The Potency was inconclusive: 10 µM [inhibitor, partial curve].

Question: For `CCOc1ccc(CCNC(=O)c2nn(-c3ccc(OC)cc3)c(=O)c3c2c2ccccc2n3C)cc1OCC`, which “activity, negative = inhibition” value is on record?
Answer: Its value is inactive: -9.88%.

Question: For `Cc1cc(Br)cc2c1NC(=O)C2(c1c(C)n(C)n(-c2ccccc2)c1=O)c1c(C)n(C)n(-c2ccccc2)c1=O`, which Potency is on record?
Answer: Its Potency is inconclusive: 20 µM [inhibitor, single point].

Question: With `Cc1cccc(N(C)c2nc3ccc(C)cc3n3nnnc23)c1` as the molecule, how does the Potency read?
Answer: Its Potency is inconclusive: 20 µM [inhibitor, single point].

Question: How did the “activity, negative = inhibition” value turn out when `CCOC(=O)C1CCCN(S(=O)(=O)c2cc(-c3cc(C)no3)ccc2C)C1` (stereo not given) was run?
Answer: Its value is inactive: -5.44%.

Question: How did the Potency turn out when `S=c1nc(C2CC2)[nH]c2ccccc12` was run?
Answer: The Potency was inconclusive: 31.6 µM [inhibitor, partial curve].

Question: How did the Potency turn out when `O=C(/C=C\Nc1ccccc1Br)c1ccc2c(c1)OCO2` was run?
Answer: Its Potency is inconclusive: 3.16 µM [inhibitor, full curve].

Question: For `N#Cc1c(NC(=O)CSc2ncnc3sccc23)oc(-c2ccco2)c1-c1ccco1`, which Potency is on record?
Answer: Its Potency is inconclusive: 15.8 µM [inhibitor, partial curve].

Question: `COC(=O)Cc1nc2ccccc2[nH]1` was tested. Which Potency did it give?
Answer: Its Potency is inconclusive: 31.6 µM [inhibitor, single point].

Question: How did the Potency turn out when `CCOC(=O)c1nnsc1Nc1ccc(C)c(C)c1` was run?
Answer: The Potency was inconclusive: 17.8 µM [inhibitor, partial curve, poor fit].

Question: How did the Potency turn out when `O=c1[nH]c2ccccc2nc1/C=C/c1ccc(O)cc1` was run?
Answer: Its Potency is inconclusive: 14.1 µM [inhibitor, partial curve].

Question: Which Potency does the source give for `Nc1ccccc1C(=O)NNc1c2ccccc2nc2ccccc12` here?
Answer: The Potency was active: 5.62 µM.

Question: How did the “activity, negative = inhibition” value turn out when `Cc1ccc(C(=O)CSc2nnc3ccc4ccccc4n23)cc1` was run?
Answer: Its value is inactive: -13.2%.

Question: Which Potency does the source give for `CCCCCCC(=O)Nc1nc(C)c(-c2csc(Nc3cc(OC)ccc3OC)n2)s1` here?
Answer: The Potency was inconclusive: 14.1 µM [inhibitor, partial curve].

Question: For `COc1cccc(CNC(=O)c2ccc(CS(=O)Cc3ccc(Cl)cc3)o2)c1` (stereo not given), which “activity, negative = inhibition” value is on record?
Answer: The value was inactive: 0.0207%.

Question: `Nc1ncnc2c1ncn2C1OC(CO)C(O)C1O` (stereo not given) was tested. Which Potency did it give?
Answer: The Potency was “inactive”.

Question: For `C=CCn1c(C)cc(C2=NNC(=Nc3ccc(C)cc3)SC2)c1C`, which Potency is on record?
Answer: The Potency was inconclusive: 3.55 µM [inhibitor, full curve].

Question: For `COC(=O)C1=C(C)N(CCC2=CCCCC2)C(=O)C1`, which Potency is on record?
Answer: Its Potency is inconclusive: 28.2 µM [inhibitor, partial curve].

Question: `COc1ccc(-c2csc(C3=C(O)CN(Cc4ccc(Cl)cc4)C3=N)n2)cc1OC` was tested. Which Potency did it give?
Answer: The Potency was inconclusive: 15.8 µM [inhibitor, partial curve].

Question: With `Cn1c(=O)c(C(=O)CN2CCCc3ccccc32)c(N)n(Cc2ccccc2)c1=O` as the molecule, how does the Potency read?
Answer: The Potency was inconclusive: 28.2 µM [inhibitor, partial curve].

Question: How did the Potency turn out when `Cc1ccc(CNc2ncc(-c3ccc4c(c3)OCO4)n2C)cc1` was run?
Answer: The Potency was inconclusive: 28.2 µM [inhibitor, single point].

Question: For `Cc1ccc(CNC(=O)Cn2cc(C(=O)c3ccc(Cl)cc3)c(=O)c3ccc(C)nc32)cc1`, which “activity, negative = inhibition” value is on record?
Answer: The value was inactive: -6.36%.

Question: For `CCCCCCCC(=O)Nc1ccc(C(=O)N/N=C/c2cccc([N+](=O)[O-])c2)cc1`, which Potency is on record?
Answer: Its Potency is inconclusive: 1.58 µM [inhibitor, full curve].

Question: For `CCCCn1c(=O)c2oc3ccccc3c2n(CC(=O)Nc2ccccc2OC)c1=O`, which “activity, negative = inhibition” value is on record?
Answer: Its value is inactive: 0.737%.

Question: How did the Potency turn out when `Cc1nn(-c2ccccc2)c(Cl)c1/C=N/NS(=O)(=O)c1ccc(Br)cc1` was run?
Answer: The Potency was inconclusive: 15.8 µM [inhibitor, partial curve, poor fit].

Question: Which “activity, negative = inhibition” value does the source give for `NCCC[C@@H](CC(=O)N[C@@H]1CCCC[C@H]1C(=O)N[C@H](CC(=O)N[C@@H](CCC(=O)O)CC(=O)O)Cc1c[nH]c2ccccc12)NC(=O)C[C@H](Cc1c[nH]c2ccccc12)NC(=O)[C@@H]1CNCC[C@H]1N` here?
Answer: The value was inactive: -7.75%.

Question: Which Potency does the source give for `CCN1CCOC(=O)C1CC(=O)Nc1cc(Cl)ccc1OC` (stereo not given) here?
Answer: The Potency was inconclusive: 11.2 µM [inhibitor, partial curve].

Question: Which “activity, negative = inhibition” value does the source give for `O=C(c1cc(-c2cccs2)on1)N1CCN(c2ccc(F)cc2)CC1` here?
Answer: Its value is inactive: -5.53%.

Question: Which “activity, negative = inhibition” value does the source give for `O=c1oc2ccc3ccccc3c2cc1-c1nnc(Nc2cccc(F)c2)s1` here?
Answer: The value was inactive: -11.8%.

Question: For `O=C(/C=C/c1ccccc1)Nc1nc(-c2ccncc2)cs1`, which Potency is on record?
Answer: The Potency was inconclusive: 7.08 µM [inhibitor, partial curve].

Question: Which “activity, negative = inhibition” value does the source give for `O=C(Nc1ccon1)c1sc2ccccc2c1Cl` here?
Answer: Its value is inactive: -23.4%.

Question: `CC(=O)c1sc(NC(=O)c2c(F)cccc2F)nc1-c1ccccc1` was tested. Which “activity, negative = inhibition” value did it give?
Answer: The value was inactive: -1.25%.

Question: For `CCCCCCSc1nc(O)c(C2OC(=O)c3c2ccc(OC)c3OC)c(=O)n1CC` (stereo not given), which Potency is on record?
Answer: The Potency was inconclusive: 8.91 µM [inhibitor, full curve].

Question: `CC(=O)NNc1nc(-c2ccccc2)cs1` was tested. Which Potency did it give?
Answer: The Potency was active: 17.8 µM.

Question: How did the Potency turn out when `O=C(CCCn1c(=S)[nH]c2cc3c(cc2c1=O)OCO3)N1CCc2ccccc2C1` was run?
Answer: Its Potency is inconclusive: 1.12 µM [inhibitor, full curve].

Question: How did the Potency turn out when `C=CCCC(=O)Nc1nc(C)c(-c2csc(Nc3cc(OC)ccc3OC)n2)s1` was run?
Answer: Its Potency is active: 14.1 µM.

Question: Which Potency does the source give for `Cc1ccc2[nH]c3c(NCc4ccco4)ncnc3c2c1` here?
Answer: Its Potency is inconclusive: 10 µM [inhibitor, partial curve].

Question: `Brc1ccc(-c2csc(N3CCOCC3)n2)cc1` was tested. Which Potency did it give?
Answer: The Potency was inconclusive: 10 µM [inhibitor, partial curve, poor fit].

Question: How did the Potency turn out when `CCOC(=O)C(C)/C(C)=N\Nc1ccc([N+](=O)[O-])cc1[N+](=O)[O-]` (stereo not given) was run?
Answer: The Potency was inconclusive: 15.8 µM [inhibitor, partial curve].

Question: With `Cc1ccccc1CNC(=O)c1ccc2c(c1)N(Cc1ccccc1)CCS2` as the molecule, how does the “activity, negative = inhibition” value read?
Answer: Its value is inactive: -6.55%.

Question: With `COc1cc(OC)c(NC(=S)NCc2ccccc2)cc1Cl` as the molecule, how does the Potency read?
Answer: The Potency was inconclusive: 12.6 µM [inhibitor, partial curve, poor fit].

Question: How did the Potency turn out when `C=CCNC(=S)N/N=C(\C)c1ccc(-n2ccnc2)cc1` was run?
Answer: The Potency was inconclusive: 22.4 µM [inhibitor, partial curve].
